Reference: article PMC11995724, “Antibiotic target discovery by integrated phenotypic and activity-based profiling of electrophilic fragments” (Cell chemical biology, 2025)
About 110 (3.4%) of roughly 3,200 compounds showed an effect of 50% or more. This is one part of the list.

test system: T1, V. cholerae SAD30; set-up: species or system S. aureus MSSA476 (TSB) or V. cholerae SAD30 (LB); 384-well bacterial growth screen at 25 uM, OD600 relative to DMSO control; conditions: relative growth, OD600, LB; 25 µM; inhibitor
T1 construct: SAD30

Compound | % of control remaining [%]
N#CC(=Cc1cccc(Cl)c1Cl)C(=O)Nc1ccc(F)cc1 [8-P22, 2-cyano-3-(2,3-dichlorophenyl)-N-(4-fluorophenyl)prop-2-enamide] | 87.8994
CC(Cl)C(=O)NCc1csc2ccccc12 (stereo not shown) [7-C11, N-[(1-benzothiophen-3-yl)methyl]-2-chloropropanamide] | 69.5192
C=CC(=O)N(C)Cc1nc2c(n1C)CCCC2 [2-K22, N-methyl-N-[(1-methyl-4,5,6,7-tetrahydro-1H-1,3-benzodiazol-2-yl)methyl]prop-2-enamide] | 107.488
CC(Cl)C(=O)N1CCNC(=O)C1c1c(F)cccc1Cl (stereo not shown) [6-D07, 3-(2-chloro-6-fluorophenyl)-4-(2-chloropropanoyl)piperazin-2-one] | 93.4307
C=CC(=O)Nc1ccnn1C1CCCC1 [2-K13, N-(1-cyclopentyl-1H-pyrazol-5-yl)prop-2-enamide] | 76.1459
CC(Cl)C(=O)NC1CCCn2nccc21 (stereo not shown) [6-J16, 2-chloro-N-{4H,5H,6H,7H-pyrazolo[1,5-a]pyridin-4-yl}propanamide] | 89.0321
C=CCNC(=O)C(C#N)=Cc1ccc(C(=O)O)cc1 [8-J04, 4-{2-cyano-2-[(prop-2-en-1-yl)carbamoyl]eth-1-en-1-yl}benzoic acid] | 76.3426
O=C(CCl)N1CCn2c(cc3ccccc32)C1 [5-A20, 2-chloro-1-{1H,2H,3H,4H-pyrazino[1,2-a]indol-2-yl}ethan-1-one] | 106.756
CC(NC(=O)C(C#N)=Cc1cc(O)ccc1[N+](=O)[O-])c1ccccc1 (stereo not shown) [9-D15, 2-cyano-3-(5-hydroxy-2-nitrophenyl)-N-(1-phenylethyl)prop-2-enamide] | 81.1013
Cc1ccc(C2=NN(C(=O)CCl)C(c3cccs3)C2)o1 (stereo not shown) [5-I17, 2-chloro-1-[3-(5-methylfuran-2-yl)-5-(thiophen-2-yl)-4,5-dihydro-1H-pyrazol-1-yl]ethan-1-one] | 100.704
N#CC(=Cc1ccccc1Cl)C(=O)Nc1ccc2c(c1)OCCO2 [8-F03, 3-(2-chlorophenyl)-2-cyano-N-(2,3-dihydro-1,4-benzodioxin-6-yl)prop-2-enamide] | 94.4256
Cc1ccccc1NC(=O)C(C#N)=Cc1ccsc1 [8-K15, 2-cyano-N-(2-methylphenyl)-3-(thiophen-3-yl)prop-2-enamide] | 70.6322
Cc1ccccc1CN1CCC(NC(=O)CCl)CC1.Cl [6-L08, 2-chloro-N-{1-[(2-methylphenyl)methyl]piperidin-4-yl}acetamide hydrochloride] | 89.7905
Cc1cc(C(=O)CCl)c(C)n1CCc1ccccc1 [10-B18, 2-chloro-1-[2,5-dimethyl-1-(2-phenylethyl)-1H-pyrrol-3-yl]ethan-1-one] | 95.3828
C=CC(=O)NCc1cccc(-c2nnc[nH]2)c1 [1-I18, N-{[3-(4H-1,2,4-triazol-3-yl)phenyl]methyl}prop-2-enamide] | 89.9851
N#CC(=Cc1csc(-c2ccsc2)n1)C(=O)NC1CC1 [9-N18, 2-cyano-N-cyclopropyl-3-[2-(thiophen-3-yl)-1,3-thiazol-4-yl]prop-2-enamide] | 88.5792
N#CC(=Cc1ccc(Cl)cc1Cl)C(=O)Nc1ccncc1 [8-M22, 2-cyano-3-(2,4-dichlorophenyl)-N-(pyridin-4-yl)prop-2-enamide] | 83.5486
C=CC(=O)N1CCC(C(=O)NCc2cc(=O)n3ccccc3n2)CC1 [3-L12, N-({4-oxo-4H-pyrido[1,2-a]pyrimidin-2-yl}methyl)-1-(prop-2-enoyl)piperidine-4-carboxamide] | 91.5604
C=CC(=O)N(Cc1ccc(F)cn1)c1cnn(C2CCCC2)c1C [1-D11, N-(1-cyclopentyl-5-methyl-1H-pyrazol-4-yl)-N-[(5-fluoropyridin-2-yl)methyl]prop-2-enamide] | 86.846
O=C(CCl)N[C@H]1CCN(S(=O)(=O)c2ccccc2)C1 [7-P16, N-[(3S)-1-(benzenesulfonyl)pyrrolidin-3-yl]-2-chloroacetamide] | 91.0623
N#CC(=Cc1cccnc1)C(=O)Nc1ccc(F)cc1 [8-B21, 2-cyano-N-(4-fluorophenyl)-3-(pyridin-3-yl)prop-2-enamide] | 82.5969
CC(Cl)C(=O)N(C)Cc1ncnn1CC(F)F (stereo not shown) [7-C10, 2-chloro-N-{[1-(2,2-difluoroethyl)-1H-1,2,4-triazol-5-yl]methyl}-N-methylpropanamide] | 77.0527
CC(C)NC(=O)C(C#N)=Cc1cccs1 [8-H15, 2-cyano-N-(propan-2-yl)-3-(thiophen-2-yl)prop-2-enamide] | 71.0401
CC(Cl)C(=O)N1CCN(CC(F)(F)C(F)F)CC1 (stereo not shown) [7-J07, 2-chloro-1-[4-(2,2,3,3-tetrafluoropropyl)piperazin-1-yl]propan-1-one] | 78.5065
N#CC(=Cc1ccc(C#N)cc1)C(=O)Nc1cccc2ccccc12 [8-O16, 2-cyano-3-(4-cyanophenyl)-N-(naphthalen-1-yl)prop-2-enamide] | 69.1366
Cc1nc2n(n1)CCCC2NC(=O)CCl (stereo not shown) [7-F12, 2-chloro-N-{2-methyl-5H,6H,7H,8H-[1,2,4]triazolo[1,5-a]pyridin-8-yl}acetamide] | 78.5065
N#CC(=Cc1c[nH]c2ccccc12)C(=O)Nc1ccccn1 [9-B10, 2-cyano-3-(1H-indol-3-yl)-N-(pyridin-2-yl)prop-2-enamide] | 78.654
Cc1cc(CN(C(=O)CCl)C2CCCC2)c2ccccc2n1 [7-B20, 2-chloro-N-cyclopentyl-N-[(2-methylquinolin-4-yl)methyl]acetamide] | 87.8903
